# Results reported in PubChem BioAssay AID588855 (National Center for Advancing Translational Sciences (NCATS), 2011).
# Out of some 410,000 compounds screened, about 5,000 (1.2%) were called active. Inconclusive means that the source gave no clear call. Such entries were picked first, then a sample of the others. Calls follow the shape of the dose curve; as a rule, active = well fitted inhibition curve with a large enough effect; inconclusive = small, poorly fitted or top-dose-only effect; inactive = no such curve, though single readings can be large or run the other way. Where the call is inconclusive, the potency comes from a doubtful curve fit.
# Assay: qHTS for Inhibitors of TGF-b; also: nearly all actives have a fitted effect of over 65% in size
# Conditions: HepG2 CAGA-GFP TGF-b/SMAD3 reporter, GFP fluorescence, 18 h, TGF-beta stimulated, 500 pg/mL final; series mostly up to 46.1 µM
# In short: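 Cell-based qHTS in HEPG2 carrying a CAGA-GFP Smad reporter; compounds added before 500 pg/mL final TGF-beta, 18 h incubation at 37 degrees C, GFP fluorescence quantified per cell by imaging cytometry.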
# Potency is read from the fitted curve at half-maximal effect; tags tell the direction and shape of the fitted curve.
row,SMILES,Potency
1,COc1ccc(F)cc1CN1CCN(C(=O)CCC(=O)Nc2nnc(C(C)C)s2)CC1,"inconclusive: 1.12 µM [inhibitor, full curve, poor fit]"
2,O=C(COC(=O)CNC(=O)c1sc2ccccc2c1Cl)Nc1c(Cl)cc(Cl)cc1Cl,inactive
3,COc1ccc(Cl)cc1NC(=O)C1CCCN(S(=O)(=O)c2cccc3nonc23)C1 (stereo not given),inactive
4,Cc1cnc2c(C)cccc2c1/C=C/c1ccc(N(C)C)cc1,"inconclusive: 31.6 µM [inhibitor, single point]"
5,COc1ccccc1CN1CCNC(=O)C1=O,inactive
6,C=CCOC(=O)C1CC=CCC1C(=O)Oc1ccc(F)cc1F (stereo not given),"inconclusive: 1.41 µM [inhibitor, full curve]"
7,COc1ccc(-c2nc3c4ccccc4ccn3c2Cc2ccc(C)cc2)cc1OC,active: 12.6 µM
8,C=CC[n+]1c(-c2ccc(OCC)cc2)csc1NNC(=O)Nc1ccccc1,"inconclusive: 14.1 µM [inhibitor, single point]"
9,CC1c2cc3c(cc2CCN1C(=O)c1cccc(F)c1)OCCCO3 (stereo not given),"inconclusive: 31.6 µM [inhibitor, single point]"
10,CCOCCn1ccc2c(OCC(=O)Nc3cccc([N+](=O)[O-])c3)cccc2c1=O,"inconclusive: 2.51 µM [inhibitor, partial curve, poor fit]"
11,COc1cccc(-n2nnnc2SCC(=O)NCc2ccco2)c1,"inconclusive: 1.26 µM [inhibitor, partial curve, poor fit]"
12,CC1CCCC(NC(=O)c2ccc3c(=O)n(CC4CCCO4)c(=O)[nH]c3c2)C1C (stereo not given),inactive
13,CN(C)CCCNC(=O)C(=O)NCC(c1ccc2c(c1)OCO2)N1CCOCC1 (stereo not given),inactive
14,O=C(c1ccccc1)N1N=C(c2ccccc2)CC1c1ccc2nccnc2c1 (stereo not given),"inconclusive: 3.55 µM [inhibitor, single point]"
15,CC(=O)N1CCN(S(=O)(=O)c2ccc3c(c2)CC(=O)N3)CC1,inactive
16,COc1ccc(-c2cnc(C)o2)cc1S(=O)(=O)Nc1ccc(F)cc1F,inactive
17,Cc1ccc(C)c(S(=O)(=O)N2CCN(CC(=O)Nc3sccc3C#N)CC2)c1,"inconclusive: 17.8 µM [inhibitor, single point]"
18,CCOC(=O)N1CCN(S(=O)(=O)/C=C/c2ccccc2)CC1,inactive
19,CC(C)(C)c1csc(NNC(=O)c2ccc(Br)cc2)n1,"inconclusive: 14.1 µM [inhibitor, partial curve, poor fit]"
20,COc1cc(NC(=O)c2ccnnc2)cc(C(=O)Nc2cccc(C(F)(F)F)c2)c1,"inconclusive: 4.47 µM [inhibitor, partial curve, poor fit]"
